Assay results taken from the supplement of paper PMC12632987.
Over roughly 4,500 sequences, “median log2 fold change of GCK-ALFA target abundance (FLAG IP / Myc IP barcode read proportion)” has its median near 0.078; the lowest 2% begin near -0.6. This is one part of the list.

B1: GBRAP_131_3606 (protein)
chain: LKGRLAVIDEPLSVEEMLARVDEIIEEAVEEGADAVVIRLRNQSPEVYEAAEERVDERDEELLEERGMRLVVLPPGTTEEEARNILEALLLEVELEKEEE
B2: GBRAP_11_2729 (protein)
chain: KKAQLKALAEQAEALAKEIEALIKEGATEEKLKALAKQAKALADQAKAIGAPQSIVDDLQFAADSLEEAIKDPSNTEEHLKEAAAAARVAAGQLLLELEE
B3: GBRAP_26_5431 (protein)
chain: VSEIIDKMLDKLDAAFDELLDPDKAAMAKAEVATELEEVEEKIEEEDLSIEEIKELFEEMIEEIIEFLKELGVSEETIEKLREYMEEVAEEALEEIEKER
B4: GBRAP_35_5554 (protein)
chain: EFDKEVLEMMKATAEDVLLAVEDMDPETLFATTTSIGNATLKLIEEEKEEKEEMKELAEATLEAIDAAIKKLEEQGAPKEDIEKLKELKKKIEEALKKRE
B5: GBRAP_160_4604 (protein)
chain: MEEVEKLVEELEEIAEEAVAMIEGQSPEERLVIVRVAAGEIRLLLDESPIVTDEVEDFADEVLDALIATVEANPDLSVEELAALFAETIEKIREKLEEEA
B6: GBRAP_14_3838 (protein)
chain: SEELRKLLLEVVDRAVAAVAELAPPEDAPEVAALRERLEEAVEEVLKLGDFEEAEKRLLEVAEETVDELFAHLPATERAAIRAEALDVLLEGLEEVEEKL
B7: GBRAP_14_3833 (protein)
chain: MEEVKRVIRETVEEIRDSLSRMFPEKAEEIAEALDRILERVLRLLEETGDVEEALELLERETLAAVDEILADESPEAQAAARAEVINEIAEAEEEIEELL
B8: GBRAP_52_5960 (protein)
chain: MEEKMKKLVEELLKLAKEGKEEELEKKLREIARTLNEEELEKLAEVMAEKVEESDLETAEILLDIALRLGDILIEEGRDEGIASLIEAKVAAAAYKLEQK
B9: GBRAP_11_2616 (protein)
chain: KKEALKKAAELAEKLAETVQKLLEEGVDNEELRKEAEELLKELKELVKKELDEAHKTDVEVLEELWEEAKADPERAEEYARQLLAAARVFEGNMLLDIEE
B10: GBRAP_160_4463 (protein)
chain: KEEVKEAVEELRERVEEVLEDSENMSPEQILLAVAVEVGSSLLEWEEEGKISDEQAEILAKAIDELLRLAKEEKNASPEEAKKRAREIVEKAAKEILAAA
B11: GBRAP_184_5184 (protein)
chain: MIYEKTIKFENVEELVEQIKKIAEEVKGKNVNLYIILEAEEVTVEMAEAALNELGKIKKSGYAKSITVLVEGNVSEEVVDVLVEKAKEAGINVTIALPEE
B12: GBRAP_53_6402 (protein)
chain: MEEEIERLKEEILRLTEEATKADDEEREKLVKEIGEKLKKLKEAGMPEEEIEELAREVAKKLKEAGAPDRHLTLLAQKLEELGLEEATAEIGELLVEDLE
B13: GBRAP_39_5697 (protein)
chain: EREEEAEDTFSYLEAIGAKYQVEEKISLEEARERTRELAERFIKEHPEIAEVLKELLELAEKAGDLAILALLGLLLRAEEGTPLEEIKKDAELLIEYLKS
B14: GBRAP_14_3766 (protein)
chain: RAEIHAIIRDTGARIVALLAEIDPAHAAEFAAAIDAVVAETIAAIDATGDAEAAAEAGEDRLVARVREISADLPAERRAQLEAVVRVEFGEAILEIDEAL
B15: GBRAP_160_4372 (protein)
chain: SPELKKLAKEIEELKKEFEEEAKDLSPEEVRTLAIGVLSEVAALVFENEAVPEEVEDEIFEIIDEAIEKLRASTDASPEEIVAITKEALDKIIELVKKAA
B16: GBRAP_184_5159 (protein)
chain: KVLERTLKVKNLEEAKEKLEEIRAEAKETKADLYVFLELEELDKEILETILTGLGEIKAEGYAPNVVVHLEAELNDEEIDFVLSLADAAGVRVVLAIPDE
B17: GBRAP_195_5409 (protein)
chain: RKVVGRVLRIGADDTPEDILAKIEAIVAEVKAESNGDLVLVVARHPSVPEETVLAAVKEAQARFPDIKITVEVFDDDSLPLSTLEAFARMEVANLEEELE
B18: GBRAP_128_3550 (protein)
chain: SLEEARKEAEKVVEEIKNSDVEKAREIMRKFAEWLKTKSLEEVEAALEVVEEKAKELDAEKLEAVADVLLEQRDLFSPEVQNLIADTAVELLNEAEEKEE
B19: GBRAP_160_4028 (protein)
chain: SEKLEKLKAFAEEEFEEAKELIKGQSAEQVAAIVAVTVGRIILEAEELGIDDDEMLDRIDEIGDEAVETILENPELSEEERRELIEEAREEVLEAIEESE

Target: GABARAP, O95166
Test: median log2 fold change of GCK-ALFA target abundance (FLAG IP / Myc IP barcode read proportion) (log2 ratio); each designed protein is fused to an ALFA-tag nanobody in HEK293 cells to bring the named protein to FLAG-tagged glucokinase (GCK); Myc marks an untargeted standard; higher = target protein stabilised (more abundant)
Settings: target protein: 3xFLAG-MCP-GCK-ALFA reporter; HEK293 landing pad (RPLP)
How it was run: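 HEK293 landing-pad cells received a recombined binder library fused to the ALFA nanobody and were induced with 2 μg mL^−1 doxycycline, then transfected with a plasmid encoding a FLAG-tagged target and a Myc-tagged standard. Lysates were collected after 48 h for anti-FLAG and anti-Myc immunoprecipitation, and the circular RNA barcodes were reverse transcribed, amplified and sequenced. Target abundance for each binder is the median log2 ratio of FLAG to Myc barcode read proportions. Barcodes had to reach a proportion of at least 10^−7 in both replicates, each binder needed at least 3 barcodes per replicate, a pseudocount of 10^−6 was applied, and the two replicates were pooled.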

Sequence of GABARAP, O95166 (O95166 whole entry, the tested form may be a part): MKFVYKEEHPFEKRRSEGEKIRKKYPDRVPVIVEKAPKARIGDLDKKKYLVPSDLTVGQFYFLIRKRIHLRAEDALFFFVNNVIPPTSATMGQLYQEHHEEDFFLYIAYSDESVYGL

Binder	median log2 fold change
B1	-0.0292
B2	0.241
B3	-0.364
B4	0.441
B5	-0.0855
B6	-0.0168
B7	-0.119
B8	-0.0314
B9	0.265
B10	-0.697
B11	0.0551
B12	0.433
B13	0.186
B14	-0.0243
B15	-0.0587
B16	-0.122
B17	0.187
B18	0.223
B19	-0.313
